Measurements from PubChem BioAssay AID492947 (National Center for Advancing Translational Sciences (NCATS), 2010).
Hit rate of the full screen: of about 330,000 compounds, about 80 (0.02%) were called active. Inconclusive results, whose numbers are uncertain, are shown with a selection of clear calls. The call rests on the fitted dose curve; in most records, active means well fitted activation curve with a large enough effect; inconclusive means small, poorly fitted or top-dose-only effect; inactive means flat fitted curve, though single readings scatter. No potency is given beside an inconclusive call; the fits are too rough.
Further: nearly all actives have a fitted effect of over 65% in size.
Potency means the concentration at half of the fitted maximal effect; tags describe the fitted curve by direction and shape.
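Wherever activation is given: 0% = DMSO controls and full agonism = EC100 isoproterenol or metaproterenol.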

These compounds were tested against Beta-2 adrenergic receptor (Homo sapiens) (UniProt P07550) (assay: qHTS assay of beta-arrestin-biased ligands of beta2-adrenergic receptor). Details: beta-arrestin recruitment to beta2AR, cell-based reporter; series mostly up to 46.1 µM; activation: at the top concentration.
Sequence of UniProt P07550 (P07550 whole entry, looked up): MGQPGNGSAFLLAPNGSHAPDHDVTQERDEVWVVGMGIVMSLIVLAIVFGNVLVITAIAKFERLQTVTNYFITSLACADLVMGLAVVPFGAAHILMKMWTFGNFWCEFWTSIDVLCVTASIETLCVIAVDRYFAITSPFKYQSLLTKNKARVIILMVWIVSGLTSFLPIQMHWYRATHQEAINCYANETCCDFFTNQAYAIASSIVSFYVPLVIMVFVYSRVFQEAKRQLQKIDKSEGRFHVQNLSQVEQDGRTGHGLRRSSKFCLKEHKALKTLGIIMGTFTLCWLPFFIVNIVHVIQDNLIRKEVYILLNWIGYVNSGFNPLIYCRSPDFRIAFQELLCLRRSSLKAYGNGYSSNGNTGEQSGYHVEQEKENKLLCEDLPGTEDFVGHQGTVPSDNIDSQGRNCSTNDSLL
Description: NIH Molecular Libraries Probe Production Network [MLPCN]
NIH Chemical Genomics Center [NCGC]
PI: Bryan Roth and Bob Lefkowitz
The concept of biased agonism is an emerging concept of molecular pharmacology which proposes that seven transmembrane receptors (7TMRs) or G protein-coupled receptors (GPCRs), exist in multiple signaling conformations and complexes and that ligands (either agonists or antagonists) can induce signaling biased responses for distinct signal transduction cascades.
Furthermore, accumulating evidence over the last decade has drawn attention to a novel function of beta-arrestins as signal transducers that scaffold various signaling molecules upon activation of 7TMRs. […] This beta-arrestin-biased signaling presumably leads to distinct physiological outcomes from those by G protein activation.
Additionally, the active receptor conformations which […] on this beta-arrestin signaling are likely different from those activating G protein signaling
The goal of this screening project will be to discover and optimize novel beta-arrestin-biased ligands for beta2-AR signaling. A luminescent cell-based assay for beta2-AR-mediated agonism, known as the Tango assay, has been validated in which ligand binding of a recombinant beta2-AR and subsequent recruitment of a recombinant beta-arrestin lead to the release of the transcriptional activator tTA, which upregulates transcription of a tTA-responsive luciferase gene. […] Compounds were screened as a concentration-titration series that ranged from 46 microM to 0.6 nM.
NCGC Assay Protocol Summary:
Tango cells were dispensed into white, solid, tissue-culture-treated 1536-well plates at 1500 cells/well in DMEM, containing 1% fetal bovine serum (FBS). Then, 23 nL of compounds or DMSO were delivered to each well using a pin tool. Plates were incubated at 37 degrees C, 5% CO2 for 18 hr. Then 2.5 uL luminescent substrate mix (in-house prepared: 150 mM Tris-Cl, pH 7.6, 3 mM MgCl2, 1% Triton X-100, 5 mM DTT, 0.5 mM CoA, 0.15 mM ATP, 0.44 mM D-luciferin, final concentrations) was added to each well. Plates were then incubated for 15 minutes at room temperature, and subsequently measured on a ViewLux plate reader for luminescent signal using a clear filter with a 10 second exposure and 2x binning. The %Activity was determined from the corrected luminescence values.
Concentration-response curves were fitted to the signals arising from the resulting luminescence. The concentration-effect curves were then classified based on curve quality (r2), response magnitude and degree of measured activity, and compounds were subsequently categorized based on their curve class.
Keywords: biased agonism, beta2-AR, beta-arrestin, GPCR, 7TMR, Tango, luminescence, MLSMR, MLPCN, NIH Roadmap, qHTS, NCGC
For `CC(=O)c1c(N2CCOCC2)nc(=O)n(-c2ccccc2)c1C`, the Potency was inconclusive [rising, single point].
In the case of `CC(=O)Nc1ccc(NC(=O)CSc2nnc(-c3cccs3)n2N)cc1`, the Potency is reported as inconclusive [rising, full curve, poor fit].
In the case of `CCOc1ccccc1C1C2CCCCC2(O)CCN1C(=O)c1cccs1` (stereo unspecified), the Potency is reported as inconclusive [rising, single point].
In the case of `C=CC[C@H](CC(=O)N(CCO)Cc1ccccc1)C(=O)N[C@@H](COC(=O)[C@H](CC=C)CC(=O)OC(C)(C)C)Cc1c[nH]c2ccccc12`, the “activation” value is reported as inactive: -0.0738%.
With `CCCCCOc1ccc(NC(=O)CSc2cccc3cccnc23)cc1` the Potency was inconclusive [rising, single point].
`C=C(C)Cn1c(SCC(=O)N/N=C/c2cccc(O)c2)nc2ccccc2c1=O` was tested, and the Potency was inconclusive [rising, single point].
For `O=c1c(C(c2ccccc2)c2c(O)nc3n(c2=O)CCS3)c(O)nc2n1CCS2`, the Potency was inconclusive [rising, single point].
`Cc1c(NC(=O)OC(C)C)sc(=S)n1C` was tested, and the Potency was inconclusive [rising, single point].
`COc1ccccc1/C(O)=C(\C#N)c1nc2ccccc2[nH]1` was tested, and the “activation” value was inactive: 0.261%.
`Clc1ccc(OCc2nc(-c3ccccn3)n[nH]2)cc1` was tested, and the Potency was inconclusive [rising, single point].
In the case of `CCOc1ccc2nc(NC(=O)c3ccccn3)sc2c1`, the “activation” value is reported as inactive: -0.283%.
`COc1ccc(NC(=O)N2CCN(c3cccc(C(F)(F)F)c3)CC2)cc1OC` was tested, and the “activation” value was inactive: -0.425%.
In the case of `COc1cc(C(c2nnnn2C(C)(C)C)N2CCN(C)CC2)cc(OC)c1OC` (stereo unspecified), the Potency is reported as inconclusive [rising, single point].
In the case of `CC(=O)c1sc2nc(-c3cccs3)cc(C(F)(F)F)c2c1N`, the “activation” value is reported as inactive: 0.164%.
For `O=C(O)CSc1nc2ccc(Cl)cc2[nH]1`, the “activation” value was inactive: -0.0251%.
With `Cc1nc(NC(=S)Nc2ccccc2)sc1C` the Potency was inconclusive [activator, full curve].
With `COC(=O)[C@]1(Cc2ccccc2)N[C@H](CN(C)C(=O)c2ccc(F)cc2)[C@@H]2C(=O)N(C)C(=O)[C@@H]21` the Potency was inconclusive [rising, single point].
For `COc1cc(OC)c(S(=O)(=O)NC(C)C)cc1S(=O)(=O)NC(C)C`, the “activation” value was inactive: -0.0352%.
`Cc1ccc(S(=O)(=O)Oc2ccccc2N2C(=O)C3CC=CCC3C2=O)cc1` (stereo unspecified) was tested, and the “activation” value was inactive: 0.297%.
`Cc1ccc(C)c(S(=O)(=O)NCCCN2CCOCC2)c1` was tested, and the “activation” value was inactive: -0.273%.
With `CNC(=S)N/N=C(\C)c1cccc(C(F)(F)F)c1` the Potency was inconclusive [rising, single point].
For `Cc1cccc(NC(=S)NCc2ccco2)n1`, the Potency was inconclusive [rising, single point].
In the case of `C[C@H](C(=O)CC(=O)OC(C)(C)C)[C@H](O)c1ccccc1`, the Potency is reported as inconclusive [rising, single point].
With `C/C=C/C=N/NC(=O)CN(c1ccc(Br)cc1)S(=O)(=O)c1ccccc1` the Potency was inconclusive [rising, single point].
In the case of `C=C1C(=O)O[C@@H]2[C@H]1[C@@H](OC(=O)/C(C)=C/C)C/C(C)=C\C(=O)/C=C(\C)[C@@H]2O`, the Potency is reported as inconclusive [rising, single point].
With `CCC(=O)Nc1ccc2c(c1)C(=O)c1ccccc1C2=O` the Potency was inconclusive [rising, single point].
In the case of `Cc1ccc(C(=O)N/C(=C\c2cccc([N+](=O)[O-])c2)C(=O)OCN2C(=O)c3ccccc3C2=O)cc1`, the Potency is reported as inconclusive [rising, single point].
In the case of `C(=N\NC1=Nc2cccc3cccc1c23)/c1ccccn1`, the Potency is reported as inconclusive [rising, single point].
For `COc1ccc(N(CCCN2C(=O)c3cccc4cccc(c34)C2=O)C(=O)c2cccc(OC)c2)cc1`, the “activation” value was inactive: -0.527%.
`CC(=O)OC[C@H]1O[C@@H](Sc2cccc3cccnc23)[C@H](OC(C)=O)[C@@H](OC(C)=O)[C@H]1OC(C)=O` was tested, and the Potency was inconclusive [rising, single point].
In the case of `C/C(Cl)=C\Cn1c(O)c(N=NC(N)=S)c2ccccc21`, the Potency is reported as inconclusive [rising, single point].
For `Cc1ccc(-n2c(SCC(=O)NCc3ccco3)nc3c(sc4ccccc43)c2=O)cc1`, the Potency was inconclusive [rising, single point].
With `COc1cc(OC)cc(C(=O)Nc2nc(-c3ccccc3)c(-c3ccccc3)o2)c1` the “activation” value was inactive: 0.151%.
`CC[C@@]1(C(=O)OC)N[C@H](CN(C)S(=O)(=O)c2ccccc2)[C@@H]2C(=O)N(C)C(=O)[C@@H]21` was tested, and the “activation” value was inactive: -0.531%.
In the case of `O=C(COc1ccc2ccccc2c1)Nc1ccc(Br)cc1C(=O)O`, the Potency is reported as inconclusive [rising, single point].
With `Cc1cc(SCC#N)n2nc(C)c(-c3ccccc3)c2n1` the Potency was inconclusive [rising, full curve, poor fit].
For `CCCCC(=O)NC(=S)Nc1nnn(CCC)n1`, the Potency was inconclusive [rising, single point].
In the case of `CCOC(=O)CCC(NC(=O)CCCC(=O)NC(CCC(=O)OCC)C(=O)OCC)C(=O)OCC` (stereo unspecified), the Potency is reported as inconclusive [rising, single point].
In the case of `O=C(Cc1ccccc1)Nc1nnc(-c2ccccc2)o1`, the “activation” value is reported as inactive: -1.09%.
With `COC(=O)C1=C(C)NC(=S)NC1c1ccc(-c2cc(Cl)ccc2Cl)o1` (stereo unspecified) the Potency was inconclusive [activator, full curve].
`NC(=S)N/N=C/c1ccc(-c2ccc(SC(F)F)cc2)o1` was tested, and the Potency was inconclusive [rising, single point].
For `O=C(Oc1c(Cl)cc(Cl)c2cccnc12)c1cccs1`, the Potency was inconclusive [rising, single point].
`COc1ccc2c(c1)c1ncn(CCN3CCCCC3)c(=O)c1n2C` was tested, and the Potency was inconclusive [rising, single point].
For `O=C(c1ccc(F)cc1)C1CCN(CCn2c(=O)[nH]c3ccccc3c2=O)CC1`, the Potency was “inactive”.
For `Cc1cc(C)n(-c2nc(NCC3CCCO3)c3c4c(sc3n2)COC(C)(C)C4)n1` (stereo unspecified), the Potency was inconclusive [rising, single point].
With `COc1ccc(/C=C/CN2CCCC(CCC(=O)NCc3ccc(F)c(F)c3)C2)cc1` (stereo unspecified) the “activation” value was inactive: -1.13%.
`CCOc1ccc(N(C(=O)CNC(=O)c2ccco2)C(C(=O)NC2CCCC2)c2ccco2)cc1` (stereo unspecified) was tested, and the “activation” value was inactive: -0.307%.
In the case of `C=CCn1c(CCn2c3ccccc3c3ccccc32)n[nH]c1=S`, the Potency is reported as inconclusive [rising, single point].
With `COc1cc(COc2ccc3c(C)c(CCC(=O)O)c(=O)oc3c2)cc(OC)c1OC` the “activation” value was inactive: 0.353%.
With `Cc1cc(C)nc(SCc2ccc([N+](=O)[O-])cc2)n1` the “activation” value was inactive: -0.733%.
For `N/C(=C\C(=O)c1cc(Cl)ccc1O)C(Cl)(Cl)Cl`, the Potency was inconclusive [rising, single point].
`C/C(=N\NC(=S)Nc1ccc(C)c(C)c1)c1ccc(N2CCOCC2)cc1` was tested, and the “activation” value was inactive: -0.124%.
For `COc1ccc2[nH]c3c4c(ccc3c2c1)C(=O)C=CC4=O`, the Potency was inconclusive [rising, single point].
For `COc1ccccc1N1C(=O)CC(Sc2nc(C)cc(C)n2)C1=O` (stereo unspecified), the “activation” value was inactive: 0.287%.
In the case of `Cc1csc(/N=C/c2ccc([N+](=O)[O-])cc2)n1`, the Potency is reported as inconclusive [rising, single point].
In the case of `CCCC(=O)NC(c1ccccc1OC)c1ccc2cccnc2c1O` (stereo unspecified), the Potency is reported as inconclusive [activator, partial curve].
For `CSc1cccc(CN2CCC(Oc3cccc(C(=O)N4CCCC4)c3)CC2)c1`, the Potency was inconclusive [rising, single point].
For `CN1CCN(C(=O)c2sc(=S)n(-c3ccccc3)c2N)CC1`, the “activation” value was inactive: -0.201%.
With `O=C(Nc1ccccc1)[C@@H]1[C@@H]2C(=O)N(c3ccc(F)cc3)C(=O)[C@@H]2[C@H]2C=CC=NN21` the “activation” value was inactive: -1.14%.
`Cc1cccc(NC(=S)NC(=O)Cc2ccccc2)c1C` was tested, and the Potency was inconclusive [rising, single point].
`COC(=O)[C@@H]1CC[C@H](C)[C@@H](c2ccc(C)cc2)N1C(=O)c1ccc(/C=N/OC[C@@H](O)COCc2ccco2)cc1` was tested, and the Potency was inconclusive [rising, single point].
In the case of `CC1(C)C(=O)Nc2ccccc2N1C(=O)COC(=O)Cn1cnc2ccccc2c1=O`, the Potency is reported as inconclusive [rising, single point].
In the case of `O=C1c2ccccc2-c2onc3ccc(Oc4ccccc4)c1c23`, the Potency is reported as inconclusive [rising, single point].
`Cc1ccsc1C(=O)Nc1ccc(O)c(-c2nc3ccccc3s2)c1` was tested, and the “activation” value was inactive: -0.582%.
`CC(=O)c1sc(Nc2nc3ccc(F)cc3s2)nc1C` was tested, and the Potency was inconclusive [rising, single point].
`COc1ccc(NC(=O)CCCN2C(=O)/C(=C\c3ccco3)SC2=S)cc1` was tested, and the “activation” value was inactive: -0.323%.
With `COc1ccc(N2COC3c4cccc5cccc(c45)C32)cc1` (stereo unspecified) the Potency was inconclusive [activator, partial curve].
`COc1cc(/C=C/C(=O)/C=C(O)/C=C/c2ccc(O)c(OC)c2)ccc1O` was tested, and the Potency was inconclusive [rising, single point].
`COc1ccc(/C=C2\SC(=S)N(CCC(=O)NC3=NCCS3)C2=O)cc1OC` was tested, and the Potency was inconclusive [rising, single point].
With `CC(C)C[C@H](NC(=O)c1[nH]cnc1C(=O)N[C@@H](C)C(=O)OCc1ccccc1)C(=O)OCc1ccccc1` the “activation” value was inactive: -0.595%.
For `O=[N+]([O-])c1cc([N+](=O)[O-])c2cc3ccccc3nc2c1`, the Potency was inconclusive [activator, partial curve].
